From PubChem BioAssay AID504332 (National Center for Advancing Translational Sciences (NCATS), 2011)
Screen size: about 350,000 compounds; about 31,000 (8.9%) were called active. This list was built around the results that the source calls inconclusive (neither active nor inactive); the mix of calls is not that of the screen. Calls follow the shape of the dose curve; as a rule, active = well fitted inhibition curve with a large enough effect; inconclusive = small, poorly fitted or top-dose-only effect; inactive = no such curve, though single readings can be large or run the other way. A potency beside an inconclusive call is a rough fit, not a confirmed value.

Molecular target: Histone-lysine N-methyltransferase EHMT2 (Homo sapiens) (UniProt Q96KQ7)
Sequence of UniProt Q96KQ7 (Q96KQ7 whole entry, looked up): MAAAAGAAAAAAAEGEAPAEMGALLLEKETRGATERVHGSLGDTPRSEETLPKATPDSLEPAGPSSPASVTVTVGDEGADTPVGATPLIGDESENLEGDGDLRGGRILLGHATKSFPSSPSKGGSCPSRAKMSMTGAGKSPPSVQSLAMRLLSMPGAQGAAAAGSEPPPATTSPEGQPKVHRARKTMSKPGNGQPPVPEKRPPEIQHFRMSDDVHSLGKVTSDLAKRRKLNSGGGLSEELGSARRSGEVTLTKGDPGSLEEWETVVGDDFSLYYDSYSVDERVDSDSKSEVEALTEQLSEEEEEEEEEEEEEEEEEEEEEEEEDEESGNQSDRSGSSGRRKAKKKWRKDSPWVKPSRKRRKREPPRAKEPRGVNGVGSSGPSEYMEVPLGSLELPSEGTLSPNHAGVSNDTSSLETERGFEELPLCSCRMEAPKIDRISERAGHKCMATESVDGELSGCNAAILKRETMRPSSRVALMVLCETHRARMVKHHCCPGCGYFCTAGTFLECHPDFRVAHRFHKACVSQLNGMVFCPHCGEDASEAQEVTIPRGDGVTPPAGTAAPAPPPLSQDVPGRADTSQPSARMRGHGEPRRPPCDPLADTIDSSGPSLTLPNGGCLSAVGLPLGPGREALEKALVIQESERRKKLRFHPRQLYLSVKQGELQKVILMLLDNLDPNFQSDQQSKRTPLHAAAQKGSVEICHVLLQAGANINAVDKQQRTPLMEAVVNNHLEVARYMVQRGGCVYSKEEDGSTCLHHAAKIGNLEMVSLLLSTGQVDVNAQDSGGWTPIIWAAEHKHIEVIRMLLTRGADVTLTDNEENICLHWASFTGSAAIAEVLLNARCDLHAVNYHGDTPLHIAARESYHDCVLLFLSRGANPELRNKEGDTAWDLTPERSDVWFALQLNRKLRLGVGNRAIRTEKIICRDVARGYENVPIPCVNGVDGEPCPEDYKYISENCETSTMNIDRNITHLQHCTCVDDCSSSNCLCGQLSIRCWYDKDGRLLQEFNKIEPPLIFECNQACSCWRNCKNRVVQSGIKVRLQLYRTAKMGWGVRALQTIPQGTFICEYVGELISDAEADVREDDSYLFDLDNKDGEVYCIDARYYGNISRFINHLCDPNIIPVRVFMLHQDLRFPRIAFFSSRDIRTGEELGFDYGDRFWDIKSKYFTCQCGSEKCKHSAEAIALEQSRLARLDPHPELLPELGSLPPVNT
Test: qHTS Assay for Inhibitors of Histone Lysine Methyltransferase G9a; also: nearly all actives have a fitted effect of over 75% in size
Settings: G9a H3K9 monomethylation, AlphaScreen, 2 h; activity, negative = inhibition: at 59 µM (top of the series) unless noted
Summary of the method: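 G9a (20 nM) preincubated 15 min RT with compounds, then 500 nM biotinylated H3K9 peptide and 20 uM SAM added; 2 h RT reaction. Monomethyl-H3K9 product detected by AlphaScreen with anti-H3K9me1 antibody, streptavidin donor and anti-rabbit IgG acceptor beads.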
% is scaled to controls: 0 for no effect and ±100 for the full control effect; potency is read from the fitted curve at half-maximal effect; tags tell the direction and shape of the fitted curve.

| SMILES | Potency | activity, negative = inhibition |
| --- | --- | --- |
| CCc1ccc(CNC(=O)C2CCCN(c3nnc(C)c4c(C)n(-c5ccccc5)nc34)C2)cc1 (stereo not given) | inconclusive: 8.91 µM [inhibitor, full curve, poor fit] |  |
| COc1ccc(C(=O)NN2C(=O)C3C4C=CC(O4)C3C2=O)cc1 (stereo not given) | active: 4.47 µM |  |
| COc1ccccc1C(=O)Nc1nc2n(n1)C(c1ccc(F)cc1)C=C(c1ccc(Cl)cc1)N2 (stereo not given) |  | inactive: 10.7% |
| CCOC(=O)c1ccccc1NC(=O)CC(C)CC(=O)O (stereo not given) | inconclusive: 22.4 µM [inhibitor, partial curve, poor fit] |  |
| Cc1c(C(=O)Nc2ccccc2[N+](=O)[O-])csc1-c1ccccc1 | active: 25.1 µM |  |
| O=C(c1cc(COc2c(F)cccc2F)on1)N1CCN(C2CCCCC2)CC1 |  | inactive: 3.24% [at 102 µM] |
| CCCCOc1ccc(C(C)NC(=O)CN2C(=O)CSc3ccc(S(=O)(=O)N4CCOCC4)cc32)cc1 (stereo not given) |  | inactive: 9.09% |
| COc1ccc2cc(C3C(C#N)=C(N)OC(C)=C3C(C)=O)c(Cl)nc2c1 (stereo not given) | inconclusive: 79.4 µM [inhibitor, single point] |  |
| CN(C)S(=O)(=O)c1cccc(C(=O)NCC(=O)NC2CCN(Cc3ccccc3)CC2)c1 | inconclusive: 89.1 µM [inhibitor, single point] |  |
| CCOc1cc(N2CCOCC2)c(OCC)cc1NC(=O)c1cc(C)cc(C)c1 | inconclusive: 25.1 µM [inhibitor, partial curve] |  |
| Cc1ccc2oc(C(=O)N(C)CCC(O)c3ccccc3)c(C)c2c1 (stereo not given) |  | inactive: 29.8% [at 102 µM] |
| O=C(CC(Cc1ccccc1)c1ccco1)NC1CCCCC1 (stereo not given) | inconclusive: 79.4 µM [inhibitor, partial curve, poor fit] |  |
| Cc1ccc(-n2cccc2/C=C2/NC(=O)N(CC(=O)Nc3cccc(C)c3)C2=O)cc1 | inconclusive: 12.6 µM [inhibitor, partial curve, poor fit] |  |
| Cc1cccc(-n2c(SCc3ccc(C#N)cc3)nnc2-c2c[nH]c3ccccc23)c1 | inconclusive: 0.794 µM [inhibitor, full curve, poor fit] |  |
| N#Cc1nc(COc2ccc(Cl)cc2)oc1N1CCCC1 | inconclusive: 25.1 µM [inhibitor, single point] |  |
| CN(CC(=O)Nc1n[nH]c(=S)s1)S(=O)(=O)c1cccc2cccnc12 | active: 1.58 µM |  |
| CCCCc1ccc(CC(=O)O)cc1 | inconclusive: 8.91 µM [inhibitor, single point] |  |
| CCOc1ccc(S(=O)(=O)NCc2ccc(C)cc2)c2cccnc12 |  | inactive: 12.3% [at 102 µM] |
| O=C(NCCN1CCCCC1)/C(=N\O)c1ccccc1 | inconclusive: 79.4 µM [inhibitor, single point] |  |
| CC(Sc1nnc(-c2cccnc2)o1)C(=O)NC1CCCC1 (stereo not given) |  | inactive: -18.7% |
| O=C(CSCc1ccccc1)Nc1cccc(C(=O)Nc2ccccc2C(=O)O)c1 | inconclusive: 89.1 µM [inhibitor, single point] |  |
| O=C(O)/C=C\C(=O)N1CCc2ccccc21 |  | inactive: 14% |
| Cc1cc2n(c(=O)c1C#N)CCCN2c1cccc(Cl)c1 | inconclusive: 39.8 µM [inhibitor, single point] |  |

| SMILES | Potency | activity, negative = inhibition |
| --- | --- | --- |
| CC(C)c1cc(N2CCC(=O)NC2=O)cc(C(=O)O)c1O | inconclusive: 89.1 µM [inhibitor, single point] |  |
| CN(C)C(=O)Cn1cnc2c(cnn2-c2ccccc2Cl)c1=O |  | inactive: 1.28% [at 102 µM] |
| COc1ccc(CCNC(=O)CCCn2c(=O)c3ccccc3n(Cc3ccccc3)c2=O)cc1OC |  | inactive: -37% |
| CCOc1cc(NC(=O)CCl)c(OCC)cc1NC(=O)CCl | inconclusive: 70.8 µM [inhibitor, partial curve] |  |
| O=C1CCCc2nc3c(cc21)C(O)Oc1ccccc1-3 (stereo not given) | inconclusive: 89.1 µM [inhibitor, single point] |  |
| Cc1ccc2nc(Nc3ccc(C)c(Cl)c3)c3nncn3c2c1 |  | inactive: 36.1% [at 102 µM] |
| O=C(CN1CCNCC1)NCCSc1ccc(Cl)cc1 | inconclusive: 56.2 µM [inhibitor, partial curve] |  |
| Cc1ccc(CNC(=O)CCn2cc(-c3ccc(C)cc3)nc2-c2ccncc2)cc1 | active: 44.7 µM |  |
| CC(=O)c1ccc(Nc2cc(C)nc3nc(C)nn23)cc1 | active: 79.4 µM |  |
| COc1cc(CNCc2ccc3c(c2)OCO3)c([N+](=O)[O-])cc1OC | inconclusive: 44.7 µM [inhibitor, partial curve, poor fit] |  |
| COc1cc2c(cc1OC)CN(c1ccc(C(N)=O)cc1[N+](=O)[O-])CC2 | inconclusive: 79.4 µM [inhibitor, single point] |  |
| COc1ccc(N2CC(NS(=O)(=O)c3cccnc3)CC2=O)cc1 (stereo not given) | inconclusive: 79.4 µM [inhibitor, partial curve, poor fit] |  |
| O=S(=O)(c1ccc(F)cc1)N1CCC(Oc2cccc(C(F)(F)F)c2)CC1 |  | inactive: 37.5% |
| Cc1ccc(OCCC(=O)OCC(=O)NC2CCS(=O)(=O)C2)cc1 (stereo not given) |  | inactive: 7.65% [at 102 µM] |
| O=C(NNC(=S)Nc1ccccc1Cl)c1ccncc1 | inconclusive: 79.4 µM [inhibitor, single point] |  |
| CCOC(=O)c1[nH]c(=O)[nH]c1CSc1nc(C)cc(C)n1 |  | inconclusive: -67.5% [inhibitor] |
| CC1CN(S(=O)(=O)c2cccc(C(=O)Nc3ccc(S(=O)(=O)Nc4ncccn4)cc3)c2)CC(C)O1 (stereo not given) | inconclusive: 35.5 µM [inhibitor, partial curve, poor fit] |  |
| O=C1CC(=C(c2ccccc2)c2ccccc2)C(=O)N1CCN1CCN(c2cccc(Cl)c2)CC1 | inconclusive: 15.8 µM [inhibitor, partial curve, poor fit] |  |
| CC1CC(C)CN(CCCNC(=O)c2cc3c(=O)[nH]c4ccccc4c3n2C)C1 (stereo not given) | inconclusive: 79.4 µM [inhibitor, single point] |  |
| Cc1ccccc1Cn1c(-c2cncs2)nc2ccccc21 | inconclusive: 31.6 µM [inhibitor, partial curve, poor fit] |  |
| Cc1cccc2sc(N(CCCN(C)C)C(=O)CCc3ccccc3)nc12 | inconclusive: 31.6 µM [inhibitor, single point] |  |
| Cc1ccc(C(=O)Cn2nnc3ccccc32)cc1[N+](=O)[O-] | inconclusive: 79.4 µM [inhibitor, partial curve, poor fit] |  |
